PubChem BioAssay AID588855 (National Center for Advancing Translational Sciences (NCATS), 2011)
Among all 410,000 compounds or so, about 5,000 (1.2%) were called active. The inconclusive results got no clear call from the source; some entries with a clear call stand among them for comparison. Calls come from the whole dose curve; as a rule, active = well fitted inhibition curve with a large enough effect; inconclusive = small, poorly fitted or top-dose-only effect; inactive = no such curve, though single readings can be large or run the other way. Potencies beside an inconclusive call are fits to weak or partial responses and may not hold up.

experiment: qHTS for Inhibitors of TGF-b; conditions: HepG2 CAGA-GFP TGF-b/SMAD3 reporter, GFP fluorescence, 18 h, TGF-beta stimulated, 500 pg/mL final; series mostly up to 46.1 µM; activity, negative = inhibition: at the top concentration; note: nearly all actives have a fitted effect of over 65% in size
How it was run: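 Per well, imaged GFP fluorescence of HEPG2 CAGA-GFP cells gives the signal; cells get compound, then TGF-beta (500 pg/mL final), 18 h at 37 degrees C; %Activity versus -TGF-beta and +DMSO controls.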
% is set by controls: 0 for no effect and ±100 for the full control effect; potency is the fitted concentration of half-maximal effect; tags give direction and shape of the fitted curve.

Row | SMILES | Potency | activity, negative = inhibition
1 | O=C(Nc1ccc(C2CC2(Cl)Cl)cc1)c1cccc([N+](=O)[O-])c1 (configuration not stated) | active: 15.8 µM | –
2 | CN1C(=O)[C@@H]2C[C@@]3([C@@]45C[C@H]6C(=O)N(C)[C@@H](Cc7ccccc7)C(=O)N6[C@@H]4Nc4ccccc45)c4ccccc4N[C@H]3N2C(=O)[C@@H]1Cc1ccccc1 | inconclusive: 35.5 µM [inhibitor, single point] | –
3 | COc1ccccc1N1CCN(C(=O)c2cc(C(C)(C)C)oc2C)CC1 | inconclusive: 20 µM [inhibitor, single point] | –
4 | O=C(/C=C/c1cccs1)NC(=S)Nc1ccc(S(=O)(=O)Nc2ccccc2C(F)(F)F)cc1 | inconclusive: 15.8 µM [inhibitor, single point] | –
5 | C=CCSc1nc2sc3c(c2c(=O)n1CC)CCc1ccccc1-3 | inconclusive: 14.1 µM [inhibitor, single point] | –
6 | Cc1ccccc1Nc1c(-c2cccs2)nc2cccc(C)n12 | – | inactive: -5.42%
7 | COc1ccc(C(=O)Nc2ccccc2C(=O)NC(Cc2ccc(O)cc2)C(=O)NNC(=O)c2ccc(C)cc2)cc1 (configuration not stated) | inconclusive: 14.1 µM [inhibitor, single point] | –
8 | CCOc1ccc(/C=C/c2nc(C#N)c(NCCc3ccccc3)o2)cc1 | – | inactive: -8.51%
9 | Cc1nc2c(ccc3nc(NC(=O)Cc4cccc5ccccc45)sc32)s1 | inconclusive: 22.4 µM [inhibitor, single point] | –
10 | O=S1(=O)C=C(Sc2nnc(-c3ccccc3)o2)c2ccccc21 | active: 10 µM | –
11 | O=S(=O)(c1ccc2c(c1)OCCO2)N1CCN(c2ncnc3sccc23)CC1 | inconclusive: 31.6 µM [inhibitor, single point] | –
12 | Cc1ccc(OCC(=O)N(Cc2ccc(N(C)C)cc2)C2CCS(=O)(=O)C2)cc1C (configuration not stated) | – | inactive: 9.82%
13 | CCc1ccc2c(c1)NC(=O)C2(C)Cc1ccccc1OC (configuration not stated) | – | inactive: -8.74%
14 | C(=C\c1ccccc1)/CN1CCN(C(c2cccc3ccccc23)c2nnnn2Cc2ccccc2)CC1 (configuration not stated) | inconclusive: 11.2 µM [inhibitor, partial curve, poor fit] | –
15 | CN1CCN(C(CNS(=O)(=O)c2cccs2)c2cccnc2)CC1 (configuration not stated) | inconclusive: 12.6 µM [inhibitor, single point] | –
16 | Cc1ccc(NCCC(=O)c2cccs2)cc1Cl | – | inactive: -1.54%
17 | CC(=O)c1ccc2c3c(cccc13)C(=O)N(CCc1ccccc1)C2=O | inconclusive: 22.4 µM [inhibitor, single point] | –
18 | COc1cc(NC(=O)CCCn2c(=S)[nH]c3ccccc3c2=O)cc(OC)c1OC | – | inactive: 9.53%
19 | OCCOCCn1c(C(CO)Nc2nc(-c3cccc(Br)c3)cs2)nc2ccccc21 (configuration not stated) | inconclusive: 35.5 µM [inhibitor, single point] | –
20 | COc1ccc(NC2CCCN(C(=O)c3ccc(C(C)=O)s3)C2)cc1 (configuration not stated) | – | inactive: 4.23%
21 | Cc1ccc(NC(=O)Cn2nnc(C(=O)NCc3ccc4c(c3)OCO4)c2N)cc1Cl | – | inactive: 1.78%
22 | Cc1cccc(/C=N/NC(=O)c2cc(-c3cccnc3)nc3c2c(C)nn3-c2ccccc2)c1 | – | inactive: -6.23%
23 | CCc1ccc(C2c3[nH]c4ccccc4c3CCN2C(=O)CNC(N)=O)cc1 (configuration not stated) | – | inactive: -19.5%

Row | SMILES | Potency | activity, negative = inhibition
24 | O=C(NC1CCCC1)C1CCC(=O)N1C1CCCC1 (configuration not stated) | inconclusive: 17.8 µM [inhibitor, single point] | –
25 | CC1(C)Cc2c(ccc3ccccc23)C2=C(C(=O)N3CCCC3)C(=O)C(=O)N21 | inconclusive: 8.91 µM [inhibitor, partial curve] | –
26 | CCc1nc2ccc(C(=O)N(CC)CCN(C)C)cn2c1N(C)C(=O)c1cccc(OC)c1 | – | inactive: -10.3%
27 | COc1ccc(-c2cc(C(F)(F)F)n3nc(C(=O)N(C)Cc4ccccc4)cc3n2)cc1OC | – | inactive: 3.49%
28 | CCOc1ccccc1CN1CCC(n2nccc2NC(=O)CCCc2ccccc2)CC1 | inconclusive: 25.1 µM [inhibitor, single point] | –
29 | OC(c1ccccc1)c1nc(-c2cc3ccccc3o2)cs1 (configuration not stated) | inconclusive: 10 µM [inhibitor, single point] | –
30 | Cc1ccc2cccc(NS(=O)(=O)c3ccccc3)c2n1 | inconclusive: 3.55 µM [inhibitor, partial curve, poor fit] | –
31 | C=CCNC(=S)NCC1COc2ccccc2O1 (configuration not stated) | inconclusive: 15.8 µM [inhibitor, single point] | –
32 | O=C(O)c1ccc(/C=C/c2nc3ccccc3c(=O)[nH]2)cc1 | – | inactive: -5.99%
33 | C=CC(COCc1ccccc1)N(Cc1ccccc1)S(=O)(=O)c1ccccc1Br (configuration not stated) | inconclusive: 35.5 µM [inhibitor, single point] | –
34 | COc1cc(C(=O)/C=C/c2cccnc2)c([N+](=O)[O-])cc1OC | inconclusive: 35.5 µM [inhibitor, single point] | –
35 | COc1ccccc1-c1noc(-c2ccc(NC(C)C)c([N+](=O)[O-])c2)n1 | inconclusive: 35.5 µM [inhibitor, single point] | –
36 | C=CCn1c(SCCOc2ccc(OC)cc2)nnc1C(C)NC(=O)c1ccc(OC)cc1 (configuration not stated) | inconclusive: 35.5 µM [inhibitor, single point] | –
37 | Cc1ccc(OCCNS(=O)(=O)c2ccc(N3CCCC3=O)cc2)cc1 | inconclusive: 35.5 µM [inhibitor, single point] | –
38 | CCC1CCCCN1CC(C)(C)NS(=O)(=O)c1ccccc1 (configuration not stated) | – | inactive: -8.47%
39 | Cc1ccccc1OCc1nnc(SCC(=O)Nc2c(C)n(C)n(-c3ccccc3)c2=O)n1-c1ccccc1 | inconclusive: 35.5 µM [inhibitor, single point] | –
40 | CN(CC(=O)Nc1ccccc1Br)C(=O)COc1cccc2c1OC(C)(C)C2 | – | inactive: 1.23%
41 | CCn1c(SCc2ccccc2)nc2cc(OC)c(OC)cc2c1=O | inconclusive: 12.6 µM [inhibitor, single point] | –
42 | CCN(CC(=O)Nc1ccccc1OC)C(=O)CSCC(=O)Nc1cccc(C)c1 | – | inactive: 2.36%
43 | Cc1cc(C)n(Cc2ccc(NC(=O)c3nn(C)cc3[N+](=O)[O-])cc2)n1 | inconclusive: 35.5 µM [inhibitor, single point] | –
44 | Cc1n[nH]c(=O)nc1N1CCN(c2ccccc2)CC1 | inconclusive: 1.41 µM [inhibitor, full curve] | –
45 | O=C(CCC(=O)Nc1ccccc1)N/N=C/c1ccc2c(c1)OCO2 | inconclusive: 31.6 µM [inhibitor, single point] | –
46 | COc1ccc(C(=O)O/N=C(\N)Cc2ccc(Cl)c(Cl)c2)cc1OC | inconclusive: 35.5 µM [inhibitor, single point] | –

Row | SMILES | Potency | activity, negative = inhibition
47 | COc1ccc([C@H]2/C=C\CN(S(=O)(=O)c3cccc4cccnc34)[C@@H](C)C(=O)N2Cc2ccc(F)cc2)cc1 | inconclusive: 6.31 µM [inhibitor, partial curve, poor fit] | –
48 | COC(=O)COc1ccc(S(=O)(=O)Nc2ccc3c(c2)OCO3)cc1 | inconclusive: 0.501 µM [inhibitor, full curve, poor fit] | –
49 | O=C(NCCN1CCN(c2ccccc2)CC1)C1CCN(S(=O)(=O)c2cccc3nonc23)CC1 | – | inactive: -4.13%
50 | CCOC(=O)c1cccc(NC(=O)CNC(=O)C2CCCCC2)c1 | inconclusive: 12.6 µM [inhibitor, single point] | –
51 | CCN1/C(=C/C=C/c2sc3ccccc3[n+]2CC)Sc2ccccc21 | inconclusive: 11.2 µM [inhibitor, partial curve, poor fit] | –
52 | O=C(COc1ccccc1)Nc1ccc2c(c1)C(=O)N(CC1CCCO1)C2=O (configuration not stated) | inconclusive: 35.5 µM [inhibitor, single point] | –
53 | Cc1ccc(-c2csc3ncnc(N4CCc5ccccc5C4)c23)cc1 | – | inactive: -2.41%
54 | COC(=O)[C@H](Cc1ccccc1)NCCCn1cnc(C(=O)Nc2ccc(C)c(C)c2)n1 | inconclusive: 12.6 µM [inhibitor, single point] | –
55 | C[C@H](NC(=O)c1nc[nH]c1C(=O)N[C@@H](Cc1ccccc1)C(=O)OCc1ccccc1)C(=O)OC(C)(C)C | inconclusive: 12.6 µM [inhibitor, single point] | –
56 | CC(O)(c1ccccc1)[N+]1(CC(=O)c2ccccc2)C=CC=C1 (configuration not stated) | – | inactive: -9%
57 | Oc1ccc(N=Cc2ccc(OCc3ccccc3)cc2)cc1 | active: 11.2 µM | –
58 | CCCC(O)(c1ccc(Br)cc1)C(CN1CCOCC1)c1ccc(Cl)cc1 (configuration not stated) | inconclusive: 35.5 µM [inhibitor, single point] | –
59 | Cc1ccc(S(=O)(=O)N2CCN(C(=O)CSCc3ccc(C(C)C)cc3)CC2)cc1 | inconclusive: 15.8 µM [inhibitor, single point] | –
60 | CCn1c(=O)cc(OCC(=O)N2CCN(c3ccc(F)cc3)CC2)c2ccccc21 | inconclusive: 35.5 µM [inhibitor, single point] | –
61 | CCOC(=O)c1nc(N)c(C(=O)OCC)[nH]1 | inconclusive: 6.31 µM [inhibitor, single point] | –
62 | COc1ccc(C)cc1S(=O)(=O)Nc1cccc(-c2ccc(N3CCCCCC3)nn2)c1 | inconclusive: 35.5 µM [inhibitor, single point] | –
63 | COc1ccc(NC(=O)CN(C)C(=O)/C=C/c2cn(-c3ccccc3)nc2-c2ccc(C)cc2)cc1 | – | inactive: -12.9%
64 | O=C(CCN1CCOCC1)c1ccc(Cl)cc1 | – | inactive: -0.868%
65 | CC(=O)Nc1ccc(NC(=O)C(=O)NCC(c2ccco2)N2CCc3ccccc3C2)cc1 (configuration not stated) | inconclusive: 10 µM [inhibitor, partial curve] | –
66 | NS(=O)(=O)c1ccc(NC(=O)COC(=O)COc2ccc3ccccc3c2)cc1 | – | inactive: -18.3%
67 | Cn1c(=O)n(CCCc2ccccc2)c(=O)c2c1nc1n2CCN1c1ccc(F)cc1 | inconclusive: 0.199 µM [inhibitor, full curve, poor fit] | –
